Results reported in PubChem BioAssay AID1345082 (National Center for Advancing Translational Sciences (NCATS), 2018).
Screen size: about 94,000 compounds; about 4,000 (4.3%) were called active. This list was built around the results that the source calls inconclusive (neither active nor inactive); the mix of calls is not that of the screen. The call rests on the fitted dose curve; in most records, active means well fitted inhibition curve with a large enough effect; inconclusive means small, poorly fitted or top-dose-only effect; inactive means no such curve, though single readings can be large or run the other way. Where the call is inconclusive, the potency comes from a doubtful curve fit.

Experiment: Cytotoxic Profiling in NIH 3T3 Cell Line of Diverse Libraries Using Quantitative High-Throughput Screening; further: nearly all actives have a fitted effect of over 55% in size
Conditions: NIH 3T3 viability, CellTiter-Glo ATP luminescence, 48-72 h; series mostly up to 96.7 µM
Summary of the method: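 First NIH 3T3 cells are plated at 400 cells/well; next compound is pinned in; then plates incubate 48 or 72 hr at 37 °C; finally CellTiter-Glo is added and luminescence read after 10 min.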
Potency means the concentration at half of the fitted maximal effect; tags describe the fitted curve by direction and shape.

Row | Structure (SMILES) | Potency
1 | CN1C[C@H](C(=O)NCc2ccccc2)C[C@H]1c1cccc(C(F)(F)F)c1 | inconclusive: 79.4 µM [inhibitor, partial curve]
2 | COCCNc1ncccc1-c1cc(-c2ccccc2)nc2c(C)noc12 | inconclusive: 56.2 µM [inhibitor, partial curve, poor fit]
3 | CCOCCCNC(=O)N1CCC(c2noc(-c3ccncc3)n2)C1 (configuration not stated) | inactive
4 | Cc1ccc(C2NC(=O)N(CC(=O)Nc3cc(F)cc(F)c3)C3=C2C(=O)OC3)cc1 (configuration not stated) | inconclusive: 28.2 µM [inhibitor, partial curve]
5 | C#CCNC(=O)c1ccc2nnc(-c3cccc(OC(F)(F)F)c3)n2c1 | inconclusive: 50.1 µM [inhibitor, partial curve, poor fit]
6 | CCc1cc(=O)n(CC(=O)Nc2ccc(OC)cc2)c(-c2ccccc2)n1 | inconclusive: 50.1 µM [inhibitor, partial curve, poor fit]
7 | Cc1cc(S(=O)(=O)N2CCC(n3cnnc3C3CC3)CC2)ccc1Cl | inconclusive: 70.8 µM [inhibitor, single point]
8 | O=C(Cn1ccn2nc3c(c2c1=O)CCCC3)Nc1ccc2c(c1)OCCO2 | inconclusive: 63.1 µM [inhibitor, single point]
9 | O=C(NCCn1ccn2nc(-c3ccc(F)cc3)cc2c1=O)c1ccoc1 | inconclusive: 44.7 µM [inhibitor, partial curve, poor fit]
10 | COc1ccccc1-c1ccc2ncc(Nc3ccccc3F)n2n1 | inconclusive: 50.1 µM [inhibitor, partial curve, poor fit]
11 | CC(C)c1nc(-c2ccc(OC3CCN(C(=O)c4cc(F)ccc4F)C3)cc2)no1 (configuration not stated) | inconclusive: 35.5 µM [inhibitor, partial curve]
12 | O=C(N1CCCC(Nc2ccc(F)cc2)C1)C12CC3CC(CC(C3)C1)C2 (configuration not stated) | inconclusive: 79.4 µM [inhibitor, partial curve, poor fit]
13 | CCN(CCOc1ccc(C)cc1)C(=O)c1c(O)cccc1O | inconclusive: 44.7 µM [inhibitor, partial curve, poor fit]
14 | O=C(Cc1cccs1)NC1CCCc2c1[nH]c1c(Cl)cccc21 (configuration not stated) | active: 31.6 µM
15 | COc1cc(CNC(=O)CCC2CCN(S(=O)(=O)c3ccccc3)CC2)cc(OC)c1 | inactive
16 | O=C(NC1CCN(c2cc(-c3ccc(F)cc3)[nH]n2)CC1)c1ccccc1Cl | inconclusive: 39.8 µM [inhibitor, partial curve, poor fit]
17 | Cc1cc(C)cc(-c2ccc(CN3CC4CCC(C3)N4c3ccc(C(F)(F)F)cc3)cc2)c1 | inactive
